This note sets out measurements from the supplement of paper PMC11417369.

The other results are listed elsewhere or left out.

This assay deals with PF3D7_0420300 AP2 domain 1 (GST-tagged). Description: gcPBM binding intensity (ln(normalized median fluorescence intensity)); higher = stronger DNA binding. The essentials: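 GST-fused DNA-binding domains of P. falciparum, expressed in E. coli, were applied at about 25 μg on average for 1 h to an Agilent 4 × 180k array of primer-extended double-stranded 36-bp intergenic genomic probes and negative controls. Binding intensity is the highest Masliner-normalised natural-log median intensity across replicate spots of either probe orientation, measured with Alexa488 anti-GST antibody and a 488 nm scan.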
For the sequence “TAGAATATCCCCTACACACCCAAATAATTTACAAAT [CACACA_site4825]”, the “gcPBM binding intensity (ln)” value worked out at 9.72.
The same measure for “AAAGTTGTTACGAACATACACACGAACATACTCACG [CACACA_site604]”: 9.6; for “ATACGTGGGCAAAAAGTGCATATAATCAAAAAAAAA [GTGCAC_site9961]”: 9.18; for “ATATATATATTTGTATGTACATATCATATTGTGTGT [XGTACX_site1580]”: 9.69.
As for “AAGATATTTGAATATACACACGATTTAAATTTAATA [CACACA_site3866]”, the “gcPBM binding intensity (ln)” value came out at 9.31.
For the sequence “TTCTTTCTGTTTTATTTATAATAATTTATGATAAAA [CACACA_negctrl_site766]”, the “gcPBM binding intensity (ln)” value is 9.19.
Turning to “TGTTTTTAATTTCGCACACACCTTGTGGAAAAAAAA [CACACA_site4482]”, the “gcPBM binding intensity (ln)” value was found to be 9.19.
As to “AGAAAGAATGAAAAATGTACATATATGTAATAGCTA [XGTACX_site364]”, the “gcPBM binding intensity (ln)” value was determined as 9.44.
In the case of “TAAAATTTAAAAAGGTGTACACTATAAATTAAAATA [XGTACX_site2081]”, the “gcPBM binding intensity (ln)” value came out at 9.19.
Turning to “TTAACATATGACATTTTTTCACCCTTCCTTTATTTT [CACACA_negctrl_site1192]”, the “gcPBM binding intensity (ln)” value stood at 9.57.
As for “ATAAAATCATTCAATGGTACAGAAATACAAAATGTA [XGTACX_site6739]”, the figure is 9.31; as for “TATGTATAAAAATATTGTACATATTATATATATATA [XGTACX_site2947]”, 9.05; as for “TTTTTTTTTTTTTTTTTTTGATTCTTATAAAAATTT [GTGCAC_negctrl_site240]”, 8.26.
As to “AGGTCACATTTGTCCTCACACATAGATAAATATATA [CACACA_site5460]”, the “gcPBM binding intensity (ln)” value worked out at 9.14.
As for “ATAATTTGATCAATTTTTCATTTTTCATTTTTTTAA [CACACA_negctrl_site1252]”, the figure is 9.06; as for “AATTAGCATTAAAAATGTACAAAAGAAAAAAATATA [XGTACX_site3816]”, 9.21.
As to “GTCAAAAATAATATATGTACTTATAATAGATAAATG [XGTACX_site7755]”, the “gcPBM binding intensity (ln)” value was found to be 9.2.
“ATGATATGGATAAATACACACAATAAAATAATGTCT [CACACA_site6786]”: the “gcPBM binding intensity (ln)” value was determined as 9.54.
For the sequence “TTTTAACAAAACAAAACAAAATAATATAAAGATAAC [TGCATGCA_negctrl_site154]”, the “gcPBM binding intensity (ln)” value stood at 9.57.
For “TTTATTTATTTATGTTGTACAAGTTTATACTGGAAT [XGTACX_site6479]”, the “gcPBM binding intensity (ln)” value stood at 9.21.
On to “TTTTGATATAAAAAAAGTACATTAATAATATTAATT [XGTACX_site4248]”, for which the “gcPBM binding intensity (ln)” value is 8.87.
For “CAGTATTCTTCTATATGTACTTATTTAAATATTCTT [XGTACX_site7555]”, the “gcPBM binding intensity (ln)” value was found to be 9.43.
The same measure for “TAAATAATAATAAATGTGCACAGGTATTAACAAAAA [GTGCAC_site9988]”: 9.62; for “AATCAAAATTCATTAACACACAATTTTAATATTCTT [CACACA_site5178]”: 9.27; for TATTTTTATAAGAGCATGCACTGTTTAAAATGGTAT: 9.13.
“TTTTTTAAAATATGGACACACATATATATATATGTA [CACACA_site2784]”: the “gcPBM binding intensity (ln)” value was found to be 9.06.
With AATGACTACATAATAGTGCAATATTAAAGAAAATTA, the “gcPBM binding intensity (ln)” value turned out to be 9.23.
For “TGTATATCATAAGATGGTACACGTGTGTGCGTATGC [XGTACX_site2255]”, the “gcPBM binding intensity (ln)” value was determined as 9.49.
“ATTCTTAAAAAAAAATGTACACATGAACAATATGTA [XGTACX_site362]”: the “gcPBM binding intensity (ln)” value is 9.06.
In the case of “AGGTGAATATTTTTTACACACATAAAAAAAATATAT [CACACA_site57]”, the “gcPBM binding intensity (ln)” value came to 9.37.
With “TATATATTATATATGTGTACTCACTAACAAAAATTA [XGTACX_site6285]”, the “gcPBM binding intensity (ln)” value is 9.04.
Turning to “TTTAAGATTTTGTAATGTACATATATACATATATAT [XGTACX_site399]”, the “gcPBM binding intensity (ln)” value came to 9.12.
As for “AAATTATATAAAGGAACACACATTTTATTTTATTTT [CACACA_site1500]”, the figure is 9.32; as for “TATATTTTTATAATAACACACGATATATGTTTAGGA [CACACA_site1283]”, 9.27.
Consider “TATAAATCTATAAATGCACACAAGGGAAGAAAAACG [CACACA_site2965]”, for which the “gcPBM binding intensity (ln)” value is 9.84.
“CAAACAATTAAACAAACACACATATACAAGTATATA [CACACA_site8639]”: the “gcPBM binding intensity (ln)” value is 9.71.
As for “TATTATTCCAAGAAAAAAAAAAATAAAAAAAAAAAA [CACACA_negctrl_site1424]”, the “gcPBM binding intensity (ln)” value amounted to 8.87.
With “AAAGAACAAATAAAACATAAAATAATATATATAGAT [CACACA_negctrl_site1764]”, the “gcPBM binding intensity (ln)” value was 9.76.
For “ATTAAAATTTGTTAAAGTACTTAATAAAAATTTTTC [XGTACX_site1959]”, the “gcPBM binding intensity (ln)” value worked out at 8.86.
The same measure for “GTATATAATTATATATGTACTAAATAAATATTTTTA [XGTACX_site6062]”: 9; for “TTTTCTAAAAAAAGTTGTACATCTTATTTATATTAT [XGTACX_site295]”: 9.22; for “AAAAAATAAAAAAATAAAAAATAAAAAATAAAAAAT [TGCATGCA_negctrl_site90]”: 9.32.
The same measure for “TATAAAAATAAATAAATAAATAAATAAATAAATAAA [TGCATGCA_negctrl_site310]”: 9.03.
Regarding “ATGTAAGACAAAAAGGGTACATAATGCGTATGTATT [XGTACX_site4666]”, the “gcPBM binding intensity (ln)” value turned out to be 9.58.
